In data set [1] the target is BSA (bovine serum albumin) (Bos taurus, UniProt P02769). Briefly: Selectivity ELISA, species and domains (negative control). It counts as binding. As to the method: Selectivity determination for mAb1 was done by titrating the antibody from 4 nM to 0.25 μM and applying it on 1 μg/ml bound recombinant human (rh) CEACAM5 ECD or its domains N-A1-B1, A2-B2, A3-B3 or bound recombinant Macaca fascicularis (mf) CEACAM5 ECD, all obtained from Syngene, in an ELISA assay.
(An ELISA detects its analyte on a solid surface through an enzyme-linked reagent.)

Data set [2] deals with FcγRI, FcγRIIa, FcγRIIIa, FcγRIIIa/complex, C1q, FcγRIIb and FcγRIIIb. Briefly: Binding to Fc effector molecules. The following applies: compared to the parent clone.
The subject of data set [3] is CEACAM5 and FcRn. Briefly: Affinity to CEACAM5 and FcRn after Fc optimization. It counts as binding. To be noted: compared to the parent clone.
Data set [4] relates to SNU-16. The data set can be described thus: Viability assay (Cell Titer-Glo). It counts as cell-based, human. The following applies: Table 2; at the highest tested compound concentration. Background: Cellular ATP, detected with luciferase, serves as a proxy for viable cell number.
Data set [5] has as its system LS174T. The data set can be described thus: Viability assay (Cell Titer-Glo). The class given is cell-based, human. To be noted: Table 2; at the highest tested compound concentration.
Data set [6] concerns MDA-MB-468. The data set can be described thus: Viability assay (Cell Titer-Glo). The class given is cell-based, human. To be noted: Table 2.
The test system of data set [7] is CEACAM5-negative MDA-MB-231 cells in co-culture with CEACAM5-positive SK-CO-1 cells. Briefly: Bystander assay. It counts as cell-based, human.
Data set [8] concerns human patient-derived NSCLC xenograft model LUPF160151. Briefly: NSCLC PDX mouse model LUPF160151. To be noted: single i.v. treatment, 6 mg/kg. The class given is in vivo. As to the method:
Anti-tumor efficacy in vivo has been evaluated in the human patient-derived NSCLC xenograft model LUPF160151 (Shanghai LideBiotech CO., LTD). LUPF160151 tumor fragments were transplanted subcutaneously into the right flank of six to eight weeks old immunodeficient female mice (NU-Foxn1nu, Charles River). […] Tumor length (L) and width (W) were measured with calipers and tumor volumes were calculated using the formula L×(W^2)/2.

Data set [9] deals with human patient-derived gastric cancer xenograft model GAX066. The data set can be described thus: Gastric cancer PDX mouse model GAX066. The class given is in vivo. To be noted: single i.v. treatment. As to the method:
Anti-tumor efficacy in vivo was evaluated in the human patient-derived gastric cancer xenograft model GAX066 (Shanghai ChemPartner Co., Ltd). Tumor fragments were transplanted subcutaneously into the right flank of immunodeficient female mice (Nu/Nu mice, Beijing Vital River Lab Animal Technology Co. Ltd, 18-22 g). […] Tumor length (L) and width (W) were measured with calipers and tumor volumes were calculated using the formula L×(W^2)/2.

For data set [10], the system named is human patient-derived CRC xenograft model COPF230. Briefly: CRC PDX mouse model COPF230. The class given is in vivo. To be noted: single i.v. treatment, 6 mg/kg. As to the method: (§1) Anti-tumor efficacy in vivo was evaluated in the human patient-derived CRC xenograft models COPF230 and REPF210 (Shanghai LideBiotech CO., LTD). Tumor fragments were transplanted subcutaneously into the right flank of six to eight weeks old immunodeficient female mice (NU-Foxn1nu, Charles River). […] Tumor length (L) and width (W) were measured with calipers and tumor volumes were calculated using the formula L×(W^2)/2.
Anti-tumor efficacy of ADC1-M and ADC3-M in comparison to ADC SAR DM4 was in the human CRC xenograft model COPF230. The study was performed at Lide Biotech (Shanghai). Six to eight weeks old immunodeficient female mice (Crl: NU-Foxn1nu) were transplanted subcutaneously in the right flank with COPF230 tumor fragments. When tumors reached a mean volume of 165 mm^3 6 mice/group were treated once intravenously with vehicle (saline solution) or with ADC1-M, ADC3-M or ADC SAR DM4 (each 6 mg/kg). Tumor length (L) and width (W) were measured with calipers and tumor volumes were calculated using L×W^2/2.

In data set [11] the test system is human patient-derived CRC xenograft model REPF210. Briefly: CRC PDX mouse model REPF210. The following applies: single i.v. treatment, 6 mg/kg. The class given is in vivo. As to the method:
as §1

Data set [12] is described as follows: Pharmacokinetic study in human FcRn transgenic mice. To be noted: 3 mg/kg i.v., HuFcRn mice.

Where only a bound is given, the exact number is not on record here.

BSA (bovine serum albumin), sequence (P02769 25-607): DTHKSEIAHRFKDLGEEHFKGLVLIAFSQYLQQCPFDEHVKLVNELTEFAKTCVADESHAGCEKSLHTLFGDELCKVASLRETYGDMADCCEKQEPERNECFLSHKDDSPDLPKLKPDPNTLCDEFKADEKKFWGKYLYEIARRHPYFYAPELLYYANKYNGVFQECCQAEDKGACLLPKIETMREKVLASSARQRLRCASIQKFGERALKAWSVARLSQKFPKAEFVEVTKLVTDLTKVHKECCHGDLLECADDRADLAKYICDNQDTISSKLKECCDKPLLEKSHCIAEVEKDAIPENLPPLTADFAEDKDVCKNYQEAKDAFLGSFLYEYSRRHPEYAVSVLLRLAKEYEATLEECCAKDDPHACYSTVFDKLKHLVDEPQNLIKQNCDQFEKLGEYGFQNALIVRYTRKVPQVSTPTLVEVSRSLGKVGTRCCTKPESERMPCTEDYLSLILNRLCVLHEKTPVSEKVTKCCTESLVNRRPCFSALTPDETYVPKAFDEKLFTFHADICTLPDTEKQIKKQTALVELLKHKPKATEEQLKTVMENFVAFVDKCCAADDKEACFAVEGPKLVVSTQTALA

B1: mAb1: anti-CEACAM5 antibody; two heavy chains SEQ ID NO: 13 and two light chains SEQ ID NO: 14 (antibody)
heavy: EVQLQESGPGLVKPSQTLSLTCTVSDGSVSRGGYYLTWIRQHPGKGLEWIGYIYYSGSTYFNPSLRSRVTMSVDTSKNQFSLKLSSVTAADTAVYYCARGIAVAPFDYWGQGTLVTVSSASTKGPSVFPLAPSSKSTSGGTAALGCLVKDYFPEPVTVSWNSGALTSGVHTFPAVLQSSGLYSLSSVVTVPSSSLGTQTYICNVNHKPSNTKVDKRVEPKSCDKTHTCPPCPAPPVAGPSVFLFPPKPKDTLMISRTPEVTCVVVDVSHEDPEVKFNWYVDGVEVHNAKTKPREEQYNSTYRVVSVLTVLHQDWLNGKEYKCKVSNKALPSSIEKTISKAKGQPREPQVYTLPPSREEMTKNQVSLTCLVKGFYPSDIAVEWESNGQPENNYKTTPPVLDSDGSFFLYSKLTVDKSRWQQGNVFSCSVMHEALHNHYTQKSLSLSPG
light: EIVLTQSPATLSVSPGERATLSCRTSQSVRSNLAWYQQKPGQAPRLLIYAASTRATGIPARFSGSGSGTEFTLTISSLQSEDFAVYYCQQYTNWPFTFGPGTKVDIKRTVAAPSVFIFPPSDEQLKSGTASVVCLLNNFYPREAKVQWKVDNALQSGNSQESVTEQDSKDSTYSLSSTLTLSKADYEKHKVYACEVTHQGLSSPVTKSFNRGEC
B1: in data set [1], the “Binding to BSA (negative control)” value is given as “No binding”. Besides, the “Binding to FcγRI, FcγRIIa, FcγRIIIa, FcγRIIIa/complex, C1q, FcγRIIb and FcγRIIIb” value in data set [2] was “reduced or no binding”. The “Affinity to CEACAM5 and FcRn” value in data set [3] is recorded as “maintaining the affinity”.

B2: ADC1 (conjugate)
heavy: B1 heavy
light: B1 light
The IC50 is the concentration that gives 50% inhibition. Low values mean higher potency, high ones lower potency. Usually Vss stands for the apparent volume that relates the amount in the body to the concentration in plasma or blood. What is called Vz is a proportionality between amount in the body and measured concentration, not a real space. A high value points to extensive tissue distribution. On to B2, for which, in data set [4], the “SNU-16 maximal effect compared to untreated controls” value was “(−91%)”. Further, in data set [5], the “LS174T maximal effect compared to untreated controls” value is reported as “(−72%)”. Further, in [6] (at the highest tested compound concentration), the “MDA-MB-468 maximal effect compared to untreated controls” value is on record as “(−85%)”. For the same molecule, the half-maximal inhibitory concentration (IC50) in data set [6] (six days, geometric mean, N ≥ 2, CEACAM5 Negative) was above 10 nM. In addition, in data set [7] (ADC concentration of 1 nM), the “non-specific effect on MDA-MB-231 cells alone (only controls)” value is on record as “no non-specific effect”. In addition, in data set [7] (ADC concentration of 1 nM, six days), the “bystander effect against CEACAM5-negative MDA-MB-231 cells in the presence of CEACAM5-positive SK-CO-1” value is recorded as “potent bystander effect”. The “bystander effect compared to ADC SAR DM4” value in data set [7] (co-culture, 1 nM) is listed as “much more potent bystander effect”. In data set [8], the anti-tumor effect entry is “significant anti-tumor effect” and the “impact on body weight” value is given as “no impact on body weight”. Besides, the “tumors with complete tumor regression” value in data set [9] (10 mg/kg) was “five of six tumors”. In data set [9] (3 or 10 mg/kg), the anti-tumor effect entry was “significant anti-tumor effect” and the “impact on body weight” value is reported as “no impact on body weight”. Besides, the anti-tumor effect result in [10] is recorded as “significant anti-tumor effect”. Also, the anti-tumor effect entry in [11] is “significant anti-tumor effect”. In [12], this molecule had an AUCinf of 1360 µg·h/mL, an AUClast of 1360 µg·h/mL, a Cl of 2.20 mL/h/kg and a Tlast of 240 h. In data set [12], this molecule yielded a Vss of 0.0658 L/kg and a Vz of 0.0939 L/kg. The C0 in data set [12] (back extrapolation) was 76.8 µg/mL.

The values above are taken from patent publication US20250179210A1, “ANTI-CEACAM5 ANTIBODIES AND CONJUGATES AND USES THEREOF” (Merck Patent GmbH, priority 2022, published 2025).
